# The list shows a part of the results.
# Test system: PfHDP1 homeodomain (GST-tagged)
# Assay: gcPBM binding intensity (ln(normalized median fluorescence intensity)); higher = stronger DNA binding
# How it was run: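 Alexa488 anti-GST antibody, scanned at 488 nm, detected GST-tagged P. falciparum DNA-binding domains that had been expressed in E. coli and incubated for 1 h on an Agilent 4 × 180k array. The array carried primer-extended double-stranded 36-bp intergenic genomic probes and negative controls. Binding intensity is the highest Masliner-normalised natural-log median intensity across replicate spots of either orientation of each probe.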
row,Sequence,gcPBM binding intensity (ln)
1,ACATTTTCTTATAAATGTACATATATATTATTATAT [XGTACX_site4404],6.33
2,TGACATATAAAATATTCACACACAAGTTATAGTTCT [CACACA_site9209],6.26
3,AAAGTATATAGGATACGTACATACATAAATAAATAA [XGTACX_site8216],6.66
4,GTACAAAATTGACAAGTGCAAAAATTAAAAGCAAGA [GTGCAC_site9838],9.19
5,GTGTGAGCACATTCGGGAGAGTTTTTTTTTTTTTTT [CACACA_negctrl_site1776],7
6,TATAAAAATAAGCACACACACAAATATAGATTTATT [CACACA_site6558],6.73
7,ATATATATATAAATATGTACATATATTTATTTCTTT [XGTACX_site3784],8.54
8,ATATATCATGCCAAGGGTACAAATGTGTAGTTGAAA [XGTACX_site2820],6.64
9,TTTTTTAAATATTATTTTTATGAGTAAATATATTAT [GTGCAC_negctrl_site277],6.15
10,AAAACAAACAAAAAAAAAAAAAAAAATATCAATCTA [TGCATGCA_negctrl_site203],5.92
11,GACGTGGAAAAAAAAACACACACAAAAAAAAAAAAA [CACACA_site9324],6.04
12,TGAACATCATTTTTATGTACACACACATATACGTTG [XGTACX_site3864],6.59
13,TAAAATAAAATAAGTAGTACATATATAATTATATAT [XGTACX_site6733],6.62
14,TTTTTTTTTTTTTTTACACACTGCATACAAGAAAAA [CACACA_site5642],6.46
15,AAAATACGAATATAAACATGCACCATATAGAACAAA [TGCATGCA_site925],8.35
16,TTTTTACAAAAAAAAAAAAAAAAAATAAAAATAAAT [CACACA_negctrl_site1738],5.57
17,TACAAATATAGATGCACACACATATACATACCTATA [CACACA_site7094],9.29
18,TATATATATATATATACATGCATTTTTGTTTGCTTA [TGCATGCA_site256],9.55
19,TTTTTTTTTTCTCCTGCATGCAGCATTTATATATTA [TGCATGCA_site390],6.97

row,Sequence,gcPBM binding intensity (ln)
1,GACAACGTTTCAATGTGTACATATTTATAATATATA [XGTACX_site2427],6.54
2,TATATATATATATGTACACACATCAATCATATTAAC [CACACA_site1946],9.26
3,ATTGAAAAACCGTTTAGTACATATCATCACGTTTGT [XGTACX_site1295],6.04
4,AATTTTAAATTTAATTTACACACTTTTCATAGCATT [CACACA_site9264],6.61
5,TATAAAACACACACACATATATATATATATTTATAT [TGCATGCA_negctrl_site48],7.02
6,ATTTACAAAAATTTTGTATAAAGGGATTTTAAAATG [TGCATGCA_negctrl_site350],6.79
7,TAATTACCATATGGTACACACATATTTATAGGTATA [CACACA_site7603],6.49
8,CGCGCACCCAGACACACACACACACCCATATATATA [CACACA_site2203],7.19
9,GATAAAATAATATATAGTACTTTTTTAAAATAAATA [XGTACX_site522],5.98
10,ACGTATAATATGTACACACACATATATACCAAAAAA [CACACA_site4661],6.64
11,GAAAAAAAAAAAAAAAGTACATTCTCTATTTCATGT [XGTACX_site3209],5.8
12,ATAAATTTAAATAGGAGTACACAGCTTTATATTTTG [XGTACX_site4176],6.58
13,TATGTAATAAAATATACACACAATATACTTATATAT [CACACA_site3682],6.3
14,ATTTTTAATGGATAAGTGCATAATATTATGATGCAA,9.68
15,AGCCACGGGTTATATACACACATAATCAAATAAAAT [CACACA_site6117],6.58
16,ACATAATATATATATTGTACAAATATATTATTGTTA [XGTACX_site3385],6.35
17,AAAAAATTATATAATAATAGAACTATACATTTTATT [GTGCAC_negctrl_site645],5.91
18,CACAAATATACAAATACACACAAATATACTCATATA [CACACA_site5339],6.58
19,AGAAAGATGCAAGAAACATGCAAAAAAAAAATTTCT [TGCATGCA_site725],6.38

row,Sequence,gcPBM binding intensity (ln)
1,GTACGTTTCTCCAGACTGCACTATACGACTCGTACA [GTGCAC_site9771],7.22
2,TGTATTCCTTTTTATAGTACAATTTAAAAGTATAAA [XGTACX_site2045],6.44
3,GTTATACAAAATAATACATGCATGTCCTACATATAT [TGCATGCA_site320],6.93
4,TAAAGAAATTCTTCATGTACTTATTATTTCTCTTTT [XGTACX_site6817],6.48
5,TATGGAATAAATTTATCCATACATCTTATAACATAT [XGTACX_negctrl_site500],6.47
6,TACATAAATTAATAGTCACACACGTATTTTTTATAT [CACACA_site8806],6.31
7,AGCTATATAAATAATACATGCATTGTTCAGGTATTT [TGCATGCA_site964],6.29
8,ATTTATAATATTCAAGTGCATATATATTTTTTACTT,8.2
9,TATGTATTAAATTTTACACACATGATTCTCTATATA [CACACA_site2298],6.62
10,AATTAAATATTATAAACACACATATATATTATTTTT [CACACA_site865],6.26
11,AAACGAACATATAAATGTACATATATATACATATAT [XGTACX_site8086],6.52
12,TACAAAAAAAATGTATTTAGGACATATATATGTTTA [XGTACX_negctrl_site455],6.39
13,ATTGTAAATATAGAAGTGCAAAAGGGTATGAAATGA,9.96
14,TACATAAAATATATCACACATATAATATATATATAT [CACACA_site5834],8.54
15,AAAAAAAAAAAAAAATATAAATATATATATATATAT [GTGCAC_negctrl_site28],9.18
16,ATAATATTTCTTACCTTTGGATGTTCTAATTTTTTT [CACACA_negctrl_site1317],6.67
17,ATATATATATATATATGTACATATATTCGATTATTA [XGTACX_site557],9.2
18,GAATTTCGATATATGTGTACGCATTTGTATTATAGG [XGTACX_site6332],6.7

# From the supplement of paper PMC11417369
